{"source": "PubChem BioAssay AID652104", "about": "(National Center for Advancing Translational Sciences (NCATS), 2013)", "note": "Screen size: about 410,000 compounds; about 7,200 (1.8%) were called active. This list was built around the results that the source calls inconclusive (neither active nor inactive); the mix of calls is not that of the screen. The call rests on the fitted dose curve; in most records, active means well fitted activation curve with a large enough effect; inconclusive means small, poorly fitted or top-dose-only effect, or another doubt; inactive means no such curve, though single readings can be large or run the other way. No potency is given beside an inconclusive call; the fits are too rough. Potency means the concentration at half of the fitted maximal effect; tags describe the fitted curve by direction and shape."}
{"assay": "qHTS of TDP-43 Inhibitors; further: nearly all actives have a fitted effect of over 50% in size; on growth rescue (activation): % of control where 0% means no effect", "conditions": "TDP-43 expressing yeast growth rescue, BacTiter-Glo, 24 h; growth rescue (activation): at 46.1 µM (top of the series) unless noted", "method_in_brief": "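Readout is BacTiter-Glo luminescence of cell growth, so inhibitors register as activators. TDP-43-expressing yeast at OD600=0.02 in galactose medium, after raffinose pregrowth to mid-log, were incubated with compound for 24 hr at 30 deg C.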"}
{"smiles": "COc1ccc(-c2cc(C(=O)N(C)Cc3ccccc3)c3ccccc3n2)cc1", "Potency": "active: 14.1 µM"}
{"smiles": "COC(=O)[C@]12CCCCC=C1N(Cc1ccc(Cl)cc1Cl)C(=O)[C@H](CC(=O)N1CCCCC1)C2", "Potency": "inconclusive [activator, single point]"}
{"smiles": "Cc1cccc2c1-c1sc(C(=O)Nc3cccnc3)cc1CO2", "Potency": "inconclusive [activator, full curve]"}
{"smiles": "CC(=O)c1ccc(N/C=C\\C(=O)c2ccc(C)cc2)cc1", "growth rescue (activation)": "inactive: 6.8% [at 9.22 µM]"}
{"smiles": "c1ccc(N2CCN(c3ncnc4[nH]ncc34)CC2)cc1", "Potency": "inconclusive [activator, single point]"}
{"smiles": "Cc1ccc(N2C(=O)c3n[nH]c(C)c3C2c2ccc(C(C)C)cc2)cc1", "note": "(stereo unspecified)", "Potency": "inconclusive [activator, full curve, poor fit]"}
{"smiles": "CCc1ccccc1NC(=O)CC(C)n1nc(C)cc1C", "note": "(stereo unspecified)", "Potency": "inactive"}
{"smiles": "COc1ccc(-n2ncc3c(N4CCCc5ccccc54)ncnc32)cc1", "Potency": "inconclusive [activator, single point]"}
{"smiles": "CCOC(=O)c1sc2nc(SC)nc(-c3ccc(Cl)cc3)c2c1N", "Potency": "inconclusive [activator, full curve, poor fit]"}
{"smiles": "COc1cccc(NC(=O)c2ccccc2)c1", "Potency": "inactive"}
{"smiles": "Cc1ccc(-c2nnc(Nc3ccc(Br)cc3)c3ccccc23)cc1S(=O)(=O)NCc1nc2ccccc2[nH]1", "Potency": "inactive"}
{"smiles": "Cc1nn(Cc2ccccc2)c(Cl)c1C(=O)OC1CCOC1=O", "note": "(stereo unspecified)", "Potency": "inconclusive [activator, partial curve, poor fit]"}
{"smiles": "CC(C)N1C(=O)CCC1C(=O)NCc1ccccc1Cl", "note": "(stereo unspecified)", "Potency": "inconclusive [activator, partial curve]"}
{"smiles": "Cc1ccc(C(=O)NCc2nnnn2-c2ccc(C)c(C)c2)cc1", "Potency": "inconclusive [activator, partial curve]"}
{"smiles": "CCCCCc1ccc(CC(=O)Nn2c(C)nc3ccccc3c2=O)cc1", "Potency": "inactive"}
{"smiles": "Cc1ccc(Nc2ccc([N+](=O)[O-])cn2)cc1Cl", "Potency": "active: 0.891 µM"}
{"smiles": "Cn1c(Cl)nc2c1c(=O)n(Cc1cccc(Br)c1)c(=O)n2C", "Potency": "inconclusive [activator, single point]"}
{"smiles": "CCOc1ccccc1NC(=O)CSc1nnnn1C1CCCC1", "Potency": "inactive"}
{"smiles": "CCCNS(=O)(=O)c1cc(-c2nnc3c4ccccc4c(C)nn23)ccc1OC", "Potency": "inactive"}
{"smiles": "Cc1nc2ccc(C(=O)N3CCN(c4ccccc4)CC3)cc2s1", "Potency": "active: 14.1 µM"}
{"smiles": "CCCCCNC(=O)C(c1ccc(-c2ccccc2)cc1)n1c(=O)c(-c2cc3ccccc3[nH]2)nc2ccccc21", "note": "(stereo unspecified)", "Potency": "inconclusive [activator, full curve, poor fit]"}
{"smiles": "CCc1ccccc1NC(=S)N1CCC(C(=O)c2ccc(F)cc2)CC1", "Potency": "inconclusive [activator, single point]"}
{"smiles": "COc1ccc(C(=O)NC(=S)N(Cc2ccccc2)Cc2ccccc2)cc1", "Potency": "inconclusive [activator, single point]"}
{"smiles": "CCc1ccc(NCc2cc3ccc(OC)cc3n(CC(=O)Nc3cccc(Cl)c3C)c2=O)cc1", "Potency": "inactive"}
{"smiles": "COC(=O)c1ccc(Nc2ncnc3c2cnn3-c2cccc(C)c2)cc1", "Potency": "inconclusive [activator, partial curve, poor fit]"}
{"smiles": "O=[N+]([O-])c1ccc(Cn2cc(-c3cccc(C(F)(F)F)c3)nn2)cc1", "Potency": "active: 15.8 µM"}
{"smiles": "Cc1nc(-c2ccc(C)c(N3CCN(C(=O)Nc4ccc(Br)cc4)CC3)c2)no1", "Potency": "inconclusive [activator, single point]"}
{"smiles": "CCn1cc(S(=O)(=O)c2cccc(C)c2)c(=O)c2cc(F)c(N3CCCCC3C)cc21", "note": "(stereo unspecified)", "Potency": "inconclusive [activator, full curve, poor fit]"}
{"smiles": "CC(=O)C(C(c1ccccc1)c1c[nH]c2ccccc12)[N+](=O)[O-]", "note": "(stereo unspecified)", "Potency": "active: 12.6 µM"}
{"smiles": "CCCC(=O)Nc1nn(CCC)c2nc3ccccc3cc12", "Potency": "inconclusive [activator, partial curve]"}
{"smiles": "O=C(NCC1CCCO1)c1ccc(-c2ccccc2Cl)o1", "note": "(stereo unspecified)", "Potency": "active: 20 µM"}
{"smiles": "Cc1cccc(C)c1NC(=O)C(NC=O)c1ccccc1", "note": "(stereo unspecified)", "Potency": "inconclusive [activator, single point]"}
{"smiles": "Brc1ccc2[nH]c3c(N4CCc5ccccc5C4)ncnc3c2c1", "Potency": "inconclusive [activator, full curve]"}
{"smiles": "CCc1ccc(NC(=O)CSC2=Nc3ccccc3C3=NC(CC(=O)NCc4ccc5c(c4)OCO5)C(=O)N23)cc1", "note": "(stereo unspecified)", "Potency": "inactive"}
{"smiles": "COc1ccc(-c2cc(CCC(=O)N3CCN(c4cc(C)ccc4C)CC3)[nH]n2)cc1", "Potency": "inconclusive [activator, single point]"}
{"smiles": "CCCc1cc(C(=O)NNC(=S)Nc2cccc(C)c2)cs1", "Potency": "active: 8.91 µM"}
{"smiles": "O=C(/C=C/c1cccc(Cl)c1)c1nc2ccccc2[nH]1", "growth rescue (activation)": "inconclusive: -87.9% [activator]"}
{"smiles": "CCOC(=O)c1ccc(NC(=O)c2cnc(N3CCCC3)nc2C)cc1", "Potency": "inconclusive [activator, partial curve, poor fit]"}
{"smiles": "CC1CCCN(c2ncnc3c2nc2n3CCCCC2)C1", "note": "(stereo unspecified)", "growth rescue (activation)": "inconclusive: 36.9% [activator]"}
{"smiles": "CCOC(=O)c1[nH]c2ccccc2c1NC(=O)c1ccc(Br)o1", "Potency": "inconclusive [activator, partial curve]"}
{"smiles": "O=C(Nc1n[nH]c(C(F)(F)F)n1)c1cccs1", "Potency": "inconclusive [activator, single point]"}
{"smiles": "CC(C)(C)OC(=O)N1CCC(c2c(C(=O)Nc3ccc4c(c3)OCO4)cnn2-c2ccc(F)cc2F)CC1", "Potency": "inactive"}
{"smiles": "Cc1cc(-c2ccc(C)c(S(=O)(=O)N(Cc3cccs3)C(C)C)c2)on1", "Potency": "inactive"}
{"smiles": "COc1ccc(CNC(=S)Nc2cccc(C)c2C)cc1", "Potency": "inconclusive [activator, single point]"}
{"smiles": "COCCCNc1ncnc2c1cnn2-c1ccc(C)cc1C", "Potency": "inconclusive [activator, single point]"}
{"smiles": "O=C(Nc1cccnc1Cl)c1ccc(Cl)cc1", "Potency": "inconclusive [activator, single point]"}
{"smiles": "COc1cc(OC)cc(-c2sc3ccc(OC)cc3c2C#CCO)c1", "Potency": "inconclusive [activator, single point]"}
{"smiles": "CCCN1CCC(=O)N([C@H](COc2ccccc2)Cc2ccccc2)CC1", "Potency": "inactive"}
{"smiles": "CCc1ccc(S(=O)(=O)NCCc2csc(-c3ccccc3)n2)s1", "Potency": "active: 14.1 µM"}
{"smiles": "CC(=O)c1cccc(NC(=O)c2noc3c2CC(C)CC3)c1", "note": "(stereo unspecified)", "Potency": "inconclusive [activator, full curve, poor fit]"}
{"smiles": "COc1ccc(NC(=O)CN(c2cccc(C)c2C)S(=O)(=O)c2ccccc2)cc1OC", "Potency": "inconclusive [activator, partial curve]"}
{"smiles": "C=CCNc1cc(F)ccc1S(=O)(=O)NCC=C", "Potency": "inconclusive [activator, full curve, poor fit]"}
{"smiles": "COCCn1c(SCC(=O)c2ccccc2)nc2cc(C(=O)NC3CCCC3)ccc2c1=O", "Potency": "inactive"}
{"smiles": "COCc1cccc(-c2csc(C(C)(O)c3ccc(OC)cc3)n2)c1", "note": "(stereo unspecified)", "Potency": "inconclusive [activator, partial curve]"}
{"smiles": "CCc1ccc2nc(N(Cc3cccnc3)C(=O)c3cccs3)sc2c1", "Potency": "active: 31.6 µM"}
{"smiles": "O=C(CCl)c1ccc2[nH]c(=O)oc2c1", "Potency": "inconclusive [activator, partial curve]"}
{"smiles": "CCCCNC(=O)O/N=C(\\N)CS(=O)(=O)C(C)(C)C", "Potency": "inactive"}
{"smiles": "CCCCC(CC)CNC(=O)c1ccc2c(c1)OCO2", "note": "(stereo unspecified)", "Potency": "inconclusive [activator, single point]"}
{"smiles": "COc1cccc(CN(C)C(=O)c2cc(COc3ccc(-n4cncn4)cc3)on2)c1", "Potency": "inconclusive [activator, single point]"}
{"smiles": "CCN(CC)CCN(C(=O)c1ccc(C(=O)OC)cc1)c1nc2ccc(Cl)cc2s1", "Potency": "inactive"}
{"smiles": "CCN(CC)CC(O)CNc1ccnc2c(Cl)ccc(Cl)c12", "note": "(stereo unspecified)", "Potency": "inactive"}
{"smiles": "CSc1ccc(Cn2c(C)c(C(=O)NCc3ccc4c(c3)OCO4)sc2=O)cc1", "Potency": "active: 20 µM"}
{"smiles": "CC(C)c1ccc(S(=O)(=O)Nc2ccc(O)c(Sc3nc4ccccc4s3)c2)cc1", "Potency": "inconclusive [activator, single point]"}
{"smiles": "O=C1C(Cl)=C(N2CCN(c3ccccc3[N+](=O)[O-])CC2)C(=O)c2ccccc21", "Potency": "inconclusive [activator, single point]"}
{"smiles": "CSc1cccc(NC(=O)C2CCN(S(=O)(=O)c3ccc4[nH]c(=O)ccc4c3)CC2)c1", "Potency": "inconclusive [activator, full curve, poor fit]"}
{"smiles": "O=C(/C=C/c1cccc([N+](=O)[O-])c1)Nc1ccccc1N1CCOCC1", "Potency": "inconclusive [activator, partial curve, poor fit]"}
{"smiles": "COc1cc2c(=O)c(S(=O)(=O)c3ccc(C)cc3)cn(Cc3cccc(C)c3)c2cc1OC", "Potency": "inactive"}
{"smiles": "CCCN(CC(=O)Nc1ccccc1C)C(=O)c1sc2ccccc2c1Cl", "Potency": "inconclusive [activator, partial curve]"}
{"smiles": "CCCCCCCCN1C(=O)[C@H](CC(=O)NCc2ccc(OC)c(OC)c2)C[C@@]2(C(=O)OCC)CCC=C12", "Potency": "active: 28.2 µM"}
{"smiles": "COC(=O)c1cn(C(=O)c2ccc(OC)cc2)c2ccccc12", "Potency": "inconclusive [activator, single point]"}
{"smiles": "CC(=O)Nc1ccc(C(=O)N2CCCCC2c2cc(C(=O)Nc3cccc4c3CCCC4)no2)cc1", "note": "(stereo unspecified)", "Potency": "inconclusive [activator, full curve, poor fit]"}
